# US20180362616A1, “VARIANTS OF AMYLOID beta-PROTEIN PRECURSOR INHIBITOR DOMAIN” (THE NATIONAL INSTITUTE FOR BIOTECHNOLOGY IN THE NEGEV LTD., priority 2015, published 2018)
# At least one peptide structure holds a part that was inferred or is arguable (an end, a ring closure or a residue). Bridges are numbered along the chain shown (N, C = ends). Where no end group is shown, it is not given here.
# Key:
# mesotrypsin [1] = target: T1, mesotrypsin (Homo sapiens, UniProt P35030); assay: Hydrolysis of APPI variants by mesotrypsin, HPLC time course; type: biochemical; design: made in house; conditions: for Turnover time (fold): proteolytic stability relative to APPI-WT
# T1 sequence (P35030 81-304 limits assumed): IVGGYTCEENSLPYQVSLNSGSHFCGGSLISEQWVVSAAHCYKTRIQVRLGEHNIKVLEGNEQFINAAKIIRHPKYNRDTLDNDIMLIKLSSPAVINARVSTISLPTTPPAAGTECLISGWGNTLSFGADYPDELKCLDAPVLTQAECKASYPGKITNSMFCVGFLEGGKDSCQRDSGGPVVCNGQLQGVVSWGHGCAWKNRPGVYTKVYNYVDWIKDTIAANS
# mesotrypsin [2] = target: T1, mesotrypsin; assay: Yeast surface display staining with active mesotrypsin (flow cytometry); type: binding; design: made in house; conditions: staining of YSD clones with active mesotrypsin
# [3] = test system: PC3-M human prostate cancer cells; assay: Matrigel transwell invasion assay of PC3-M cells; type: cell-based; conditions: for inhibition of invasion: 10 nM inhibitor, 18 hours, vs control cells; for maximum inhibitory effect on invasion: 1 μM inhibitor
Compound,Turnover time (mesotrypsin [1]; hydrolysis by mesotrypsin),Turnover time (fold) (mesotrypsin [1]),binding affinity and proteolytic stability in YSD (mesotrypsin [2]),inhibition of invasion [3],maximum inhibitory effect on invasion [3],Turnover time (mesotrypsin [1]; Table 4)
"EVCSEQAETGPCRAGFSRWYFDVTEGKCAPFFYGGCGGNRNNFDTEEYCMAVCGSAI (disulfide 3-53, 12-36, 28-49) [APPI-M17G/I18F]",344.0 ± 7.6 s,12.2 fold,,,,
"EVCSEQAETGPCRAMFSRWYFDVTEGKCAPFVYGGCGGNRNNFDTEEYCMAVCGSAI (disulfide 3-53, 12-36, 28-49) [APPI-I18F/F34V]",187.1 ± 7.7 s,6.6 fold,,,,
"EVCSEQAETGPCRAGISRWYFDVTEGKCAPFVYGGCGGNRNNFDTEEYCMAVCGSAI (disulfide 3-53, 12-36, 28-49) [APPI-M17G/F34V]",270.0 ± 10.1 s,9.6 fold,,,,
"EVCSEQAETGPCRAMFSRWYFDVTEGKCAPFFYGGCGGNRNNFDTEEYCMAVCGSAI (disulfide 3-53, 12-36, 28-49) [APPI-I18F]",96.5 ± 8.2 s,3.4 fold,high binding affinity and proteolytic stability,,,
"CC[C@H](C)[C@H](NC(=O)[C@H](C)NC(=O)[C@H](CO)NC(=O)CNC(=O)[C@@H]1CSSC[C@H](NC(=O)[C@@H](NC(=O)[C@@H](N)CCC(=O)O)C(C)C)C(=O)N[C@@H](CO)C(=O)N[C@@H](CCC(=O)O)C(=O)N[C@@H](CCC(N)=O)C(=O)N[C@@H](C)C(=O)N[C@@H](CCC(=O)O)C(=O)N[C@@H]([C@@H](C)O)C(=O)NCC(=O)N2CCC[C@H]2C(=O)N[C@H]2CSSC[C@@H]3NC(=O)CNC(=O)CNC(=O)[C@H](Cc4ccc(O)cc4)NC(=O)[C@H](Cc4ccccc4)NC(=O)[C@H](Cc4ccccc4)NC(=O)[C@@H]4CCCN4C(=O)[C@H](C)NC(=O)[C@H](CSSC[C@H](NC(=O)[C@H](Cc4ccc(O)cc4)NC(=O)[C@H](CCC(=O)O)NC(=O)[C@H](CCC(=O)O)NC(=O)[C@H]([C@@H](C)O)NC(=O)[C@H](CC(=O)O)NC(=O)[C@H](Cc4ccccc4)NC(=O)[C@H](CC(N)=O)NC(=O)[C@H](CC(N)=O)NC(=O)[C@H](CCCNC(=N)N)NC(=O)[C@H](CC(N)=O)NC(=O)CNC(=O)CNC3=O)C(=O)N[C@@H](CCSC)C(=O)N[C@@H](C)C(=O)N[C@@H](C(C)C)C(=O)N1)NC(=O)[C@H](CCCCN)NC(=O)CNC(=O)[C@H](CCC(=O)O)NC(=O)[C@H]([C@@H](C)O)NC(=O)[C@H](C(C)C)NC(=O)[C@H](CC(=O)O)NC(=O)[C@H](Cc1ccccc1)NC(=O)[C@H](Cc1ccc(O)cc1)NC(=O)[C@H](Cc1c[nH]c3ccccc13)NC(=O)[C@H](CCCNC(=N)N)NC(=O)[C@H](CO)NC(=O)[C@H]([C@@H](C)CC)NC(=O)[C@H](CCSC)NC(=O)[C@H](C)NC(=O)[C@H](CCCNC(=N)N)NC2=O)C(=O)O [APPI-WT, reference compound]",28.1 ± 1.8 s,1 fold,,did not produce a significant effect,~50%,
CC[C@H](C)[C@H](NC(=O)[C@H](C)NC(=O)[C@H](CO)NC(=O)CNC(=O)[C@@H]1CSSC[C@H](NC(=O)[C@@H](NC(=O)[C@@H](N)CCC(=O)O)C(C)C)C(=O)N[C@@H](CO)C(=O)N[C@@H](CCC(=O)O)C(=O)N[C@@H](CCC(N)=O)C(=O)N[C@@H](C)C(=O)N[C@@H](CCC(=O)O)C(=O)N[C@@H]([C@@H](C)O)C(=O)NCC(=O)N2CCC[C@H]2C(=O)N[C@H]2CSSC[C@@H]3NC(=O)CNC(=O)CNC(=O)[C@H](Cc4ccc(O)cc4)NC(=O)[C@H](C(C)C)NC(=O)[C@H](Cc4ccccc4)NC(=O)[C@@H]4CCCN4C(=O)[C@H](C)NC(=O)[C@H](CSSC[C@H](NC(=O)[C@H](Cc4ccc(O)cc4)NC(=O)[C@H](CCC(=O)O)NC(=O)[C@H](CCC(=O)O)NC(=O)[C@H]([C@@H](C)O)NC(=O)[C@H](CC(=O)O)NC(=O)[C@H](Cc4ccccc4)NC(=O)[C@H](CC(N)=O)NC(=O)[C@H](CC(N)=O)NC(=O)[C@H](CCCNC(=N)N)NC(=O)[C@H](CC(N)=O)NC(=O)CNC(=O)CNC3=O)C(=O)N[C@@H](CCSC)C(=O)N[C@@H](C)C(=O)N[C@@H](C(C)C)C(=O)N1)NC(=O)[C@H](CCCCN)NC(=O)CNC(=O)[C@H](CCC(=O)O)NC(=O)[C@H]([C@@H](C)O)NC(=O)[C@H](C(C)C)NC(=O)[C@H](CC(=O)O)NC(=O)[C@H](Cc1ccccc1)NC(=O)[C@H](Cc1ccc(O)cc1)NC(=O)[C@H](Cc1c[nH]c3ccccc13)NC(=O)[C@H](CCCNC(=N)N)NC(=O)[C@H](CO)NC(=O)[C@H](Cc1ccccc1)NC(=O)CNC(=O)[C@H](C)NC(=O)[C@H](CCCNC(=N)N)NC2=O)C(=O)O [APPI-M17G/I18F/F34V],2336.7 ± 140.0 s,83 fold,remarkably higher binding affinity and proteolytic stability than the other combinations,significant inhibition of invasion,~50%,
"EVCSEQAETGPCRAGFSRWYFDVTEGLCAPFVYGGCGGNRNNFDTEEYCMAVCGSAI (disulfide 3-53, 12-36, 28-49) [APPIM17G/I18F/K29L/F34V]",,around 60 fold,,,,1868.76 s
"EVCSEQAETGPCRAMISRWYFDVTEGKCAPFVYGGCGGNRNNFDTEEYCMAVCGSAI (disulfide 3-53, 12-36, 28-49) [APPI-F34V]",62.4 ± 4.3 s,2.2 fold,only marginally enhanced binding affinity and stability vs. APPIWT,,,
"EVCSEQAETGPCRAGISRWYFDVTEGKCAPFFYGGCGGNRNNFDTEEYCMAVCGSAI (disulfide 3-53, 12-36, 28-49) [APPI-M17G]",64.3 ± 6.4 s,2.3 fold,high binding affinity and proteolytic stability,,,
